The campaign covered roughly 48,000 compounds. About 550 (1.1%) were called active. Another 4% or so got no clear call; they are omitted. Cut-off read from the data, not from the text of the source: active = potency below about 15 µM; inconclusive = mostly about 16 µM to 33 µM; inactive = weaker than that. This is one part of the list. A value given as a limit tells only on which side of the number the result lay.

This note sets out measurements from PubChem BioAssay AID360 (National Center for Advancing Translational Sciences (NCATS), 2006).
Potency is the fitted concentration of half-maximal effect.

The target of the assay is Lysosomal acid glucosylceramidase (Homo sapiens) (UniProt P04062). Put plainly: Glucocerebrosidase.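 Note: the screen sought inhibitors.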 The following applies: purified enzyme, resorufin glucoside fluorescence (screen aimed at inhibitors), 20 min. In short, it runs like this: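 Wild-type enzyme at 0.2 nM final in 50mM citric acid/KH2PO4, 10mM sodium taurocholate, 0.01% tween-20, pH 5.9, with resorufin beta-D-glucopyranoside at 30 uM final. Compounds titrated, 20 min at RT, red fluorescence read; AC50 from titration.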
UniProt P04062, sequence (P04062 whole entry, looked up): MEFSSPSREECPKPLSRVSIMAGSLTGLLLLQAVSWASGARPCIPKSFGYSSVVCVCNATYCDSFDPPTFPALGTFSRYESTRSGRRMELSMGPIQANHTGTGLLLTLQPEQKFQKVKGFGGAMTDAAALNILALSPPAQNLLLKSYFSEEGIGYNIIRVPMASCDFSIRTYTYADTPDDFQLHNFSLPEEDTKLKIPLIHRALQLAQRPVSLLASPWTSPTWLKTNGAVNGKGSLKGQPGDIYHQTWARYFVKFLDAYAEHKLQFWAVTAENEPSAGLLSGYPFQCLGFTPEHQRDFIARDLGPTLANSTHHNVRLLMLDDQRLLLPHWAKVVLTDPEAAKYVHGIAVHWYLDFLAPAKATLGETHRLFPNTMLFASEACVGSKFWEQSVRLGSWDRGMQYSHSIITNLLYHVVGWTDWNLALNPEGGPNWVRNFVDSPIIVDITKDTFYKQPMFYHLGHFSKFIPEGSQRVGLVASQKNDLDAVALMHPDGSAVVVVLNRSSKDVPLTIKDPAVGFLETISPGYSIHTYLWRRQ
For the compound `CC(=O)c1ccc(N2CCN(C(=O)CCS(=O)(=O)c3ccc(C)cc3)CC2)cc1`, the Potency is inactive: > 76.9 µM.

Consider `CC(C)NC(=O)c1ccccc1-c1nc(-c2ccccc2Cl)no1`, for which the Potency is inactive: > 76.9 µM.

Take `COc1ccccc1NC(=O)C1CC(=O)N(c2ccc(F)cc2)C1` (configuration not stated): the Potency is inactive: > 76.9 µM.

As for `CCOC(=O)[C@H]1CCC[C@@H](NS(=O)(=O)c2ccc(NC(C)=O)cc2)C1`, the Potency was inactive: > 76.9 µM.

As to `CCN(CCNC(=O)C1CCN(S(=O)(=O)CC)CC1)c1ccccc1`, the Potency was inactive: > 76.9 µM.

In the case of `O=C(COc1ccc2c(c1)C(=O)CC1(CCCCC1)O2)NCc1ccccn1`, the Potency was inactive: > 76.9 µM.

In the case of `CCc1nnc(NC(=O)CN2CCN(c3ccccc3OC)CC2)s1`, the Potency was inactive: > 76.9 µM.

With `O=C(CCN1c2ccccc2Sc2ccccc21)OCC(=O)N1CCN(C(=O)c2ccco2)CC1`, the Potency is inactive: > 76.9 µM.

As for `O=C(CSc1nccn1-c1ccccc1)NCc1ccc2c(c1)OCO2`, the Potency is inactive: > 76.9 µM.

As for `CCNc1nc(NCC)n2c(SCc3nc4ccccc4c(=O)[nH]3)nnc2n1`, the Potency is inactive: > 76.9 µM.

Take `O=C1CCCC2=C1C(c1cn(-c3ccccc3)nc1-c1cccs1)c1c([nH]c(=O)[nH]c1=O)N2` (configuration not stated): the Potency entry is “inactive”.

`CCOc1ccc(C(=O)C2CCN(CC(=O)Nc3ccccc3N3CCOCC3)CC2)cc1`: the Potency is inactive: > 76.9 µM.

With `Cc1cc(NC(=O)CSc2nnc3c4c(C)c(C)sc4ncn23)no1`, the Potency is inactive: > 76.9 µM.

As to `COc1ccc(NC(=O)CN2CCN(c3ccccc3F)CC2)cc1`, the Potency is inactive: > 76.9 µM.

Turning to `CCOc1cc(C(=O)N(C)Cc2cc3ccccc3[nH]c2=O)cc(OCC)c1OCC`, the Potency is inactive: > 76.9 µM.

Take `CCC1(C(=O)OC)NC(c2ccco2)C2C(=O)N(c3ccc(C)cc3)C(=O)C21` (configuration not stated): the Potency was inactive: > 76.9 µM.

Take `CC1CCc2ccc(F)cc2N1S(=O)(=O)c1cccs1` (configuration not stated): the Potency was inactive: > 76.9 µM.

Consider `O=S(=O)(c1cccc2nsnc12)N1CCc2ccccc21`, for which the Potency was inactive: > 76.9 µM.

For `Cc1c(C(=O)N2CCCCC2)sc(NC(=O)C2CC2)c1C#N`, the Potency was inactive: > 76.9 µM.

Consider `CCOc1ccc(NC(=O)Cn2nnc(-c3ccccc3NC(=O)C3CC3)n2)cc1`, for which the Potency is inactive: > 76.9 µM.

Take `Cc1cc(C(=O)CSc2nc3ccccc3o2)c(C)n1C1CC1`: the Potency was active: 13.5 µM.

For the compound `c1csc(-c2csc(-c3cccs3)n2)c1`, the Potency was inactive: > 76.9 µM.

As for `O=C(NCc1cccnc1)c1ccc(CS(=O)(=O)Cc2ccc(Cl)cc2)o1`, the Potency was inactive: > 76.9 µM.

Turning to `CC(C)COc1cccc(C(=O)Nc2ccc(S(=O)(=O)N3CCOCC3)cc2)c1`, the Potency entry was “inactive”.

Take `CCOc1ccccc1NC(=O)CSc1nnnn1Cc1ccccc1`: the Potency is inactive: > 76.9 µM.

Consider `CC1CCN(S(=O)(=O)c2ccc3[nH]cc(C(=O)NCCN4CCOCC4)c(=O)c3c2)CC1`, for which the Potency was inactive: > 76.9 µM.

For `Cc1occc1C(=O)NCc1cccc(CNC(=O)c2ccoc2C)c1`, the Potency is inactive: > 76.9 µM.

As for `COc1cc2c(cc1OC)-c1nncn1C(C)(C)C2`, the Potency is inactive: > 76.9 µM.

Take `c1cc(-c2noc(CCC3CCCC3)n2)ccn1`: the Potency is inactive: > 76.9 µM.

`O=C(CSc1nc(O)cc(=O)[nH]1)N1CCCc2ccccc21`: the Potency was inactive: > 76.9 µM.

On to `CCOC(=O)CCCNC(=O)CN1C(=O)NC2(CCCCCC2)C1=O`, for which the Potency is inactive: > 76.9 µM.

For `CSc1nnc(-c2ccco2)c(-c2ccco2)n1`, the Potency was inactive: > 76.9 µM.

For the compound `CCc1cc(C(=O)OC)c(NC(=O)CCCC(=O)O)s1`, the Potency was inactive: > 76.9 µM.

With `COc1ccc(NC(=O)CCc2nc(-c3ccc(C)cc3)no2)cc1Cl`, the Potency was inactive: > 76.9 µM.

As for `COC(=O)CN1C(=O)C2(C(C#N)=C(N)Oc3cc(C)oc(=O)c32)c2ccccc21` (configuration not stated), the Potency is inactive: > 76.9 µM.

Regarding `O=C(O)CCn1[nH]c(=O)ccc1=O`, the Potency is inactive: > 76.9 µM.

With `O=C(CCCn1c(=O)[nH]c2ccsc2c1=O)N1CCN(Cc2ccc3c(c2)OCO3)CC1`, the Potency was inactive: > 76.9 µM.

For `OC(COCc1ccccc1)CN1CCN(c2ccccc2F)CC1` (configuration not stated), the Potency was inactive: > 76.9 µM.

For `CCOC(=O)CN(C(=O)Cn1nnc(-c2ccc(C)cc2)n1)C(CC)C(=O)NC1CCCC1` (configuration not stated), the Potency was inactive: > 76.9 µM.

On to `CC(C)(NCc1ccccc1Cl)C(=O)O`, for which the Potency is inactive: > 76.9 µM.

Turning to `CC(=O)N1C(=O)C2(C(C#N)=C(N)Oc3cc(C)oc(=O)c32)c2ccccc21` (configuration not stated), the Potency is inactive: > 76.9 µM.

Take `CC(=O)c1cc2c(cc1NC(=O)c1ccc(-n3nc(C)cc3C)cc1)OCO2`: the Potency result was “inactive”.

In the case of `CC1CCCN(C(=O)CN2CCN(C(=O)c3ccco3)CC2)C1` (configuration not stated), the Potency is inactive: > 76.9 µM.

As for `O=C(CSc1nnc(-c2ccco2)o1)N1c2ccccc2CCc2ccccc21`, the Potency is inactive: > 76.9 µM.

As to `CCOC(=O)Cc1csc(NC(=O)CSc2nnc(C(C)C)n2C)n1`, the Potency is inactive: > 76.9 µM.

For the compound `c1ccc2c(c1)ncn2CCn1cnc2ccccc21`, the Potency was inactive: > 76.9 µM.

With `CCOC(=O)N1CCC(NC(=O)C2CCN(S(=O)(=O)c3c(C)noc3C)CC2)CC1`, the Potency is inactive: > 76.9 µM.

For the compound `CC1CCN(C(=O)CN(CCc2ccccc2)S(C)(=O)=O)CC1`, the Potency was inactive: > 76.9 µM.

For `COc1ccc(OC)c(C2C(C(=O)c3ccc(C)o3)=C(O)C(=O)N2CCCN2CCOCC2)c1` (configuration not stated), the Potency was inactive: > 76.9 µM.

For the compound `CCOc1ccccc1N(CC(=O)NC1CCCC1)C(=O)CCCC(=O)Nc1ccccn1`, the Potency was inactive: > 76.9 µM.

In the case of `CCc1ccccc1NC(=O)CC1S/C(=N\c2nccs2)N(CC)C1=O` (configuration not stated), the Potency was inactive: > 76.9 µM.

Take `COCc1[nH]nc2c1C(c1ccccc1OC)C(C#N)=C(N)O2` (configuration not stated): the Potency was inactive: > 76.9 µM.

In the case of `Cc1c(C(=O)Nn2cnnc2)oc2ccccc12`, the Potency is inactive: > 76.9 µM.

For `O=C(CCN1C(=O)c2ccccc2S1(=O)=O)Nc1nc2c(s1)CCCC2`, the Potency was inactive: > 76.9 µM.

Turning to `O=C(Nc1ccccc1)OCCNC(=O)c1ccccc1`, the Potency is inactive: > 76.9 µM.

Take `Cc1ccc(C(=O)Nc2nnn(C)n2)cc1`: the Potency is inactive: > 15.4 µM.

Take `COc1ccc(CNn2c(C)nc3ccccc3c2=O)cc1`: the Potency is inactive: > 76.9 µM.
